The other results are listed elsewhere or left out. Values come from read counts of a selection and are noisy.
Tests used:
Assay in all cases: mean normalised NGS count of phage-displayed peptide after selection on bait (% of reads); baits are purified protein domains named by gene / domain / UniProt id / residues; peptides come from disordered regions of human proteins; higher = stronger enrichment / binding
[1] = molecular target: PTBP1_RRM_2_P26599_157_285; details: replicate selections in which the peptide was seen: 6
[2] = molecular target: T1, PTK2_Focal-AT__Q05397_891_1050
T1 chain: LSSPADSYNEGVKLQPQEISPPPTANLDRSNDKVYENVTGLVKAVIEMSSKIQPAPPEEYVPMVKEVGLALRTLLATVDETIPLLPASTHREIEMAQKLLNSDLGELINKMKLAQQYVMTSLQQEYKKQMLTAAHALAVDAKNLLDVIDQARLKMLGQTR

[3] = molecular target: RAN2-B_Ran-BP1-PH-domain__P49792_2924_3050
[4] = molecular target: T2, RDX_FERM_1_P35241_5_295
T2 chain: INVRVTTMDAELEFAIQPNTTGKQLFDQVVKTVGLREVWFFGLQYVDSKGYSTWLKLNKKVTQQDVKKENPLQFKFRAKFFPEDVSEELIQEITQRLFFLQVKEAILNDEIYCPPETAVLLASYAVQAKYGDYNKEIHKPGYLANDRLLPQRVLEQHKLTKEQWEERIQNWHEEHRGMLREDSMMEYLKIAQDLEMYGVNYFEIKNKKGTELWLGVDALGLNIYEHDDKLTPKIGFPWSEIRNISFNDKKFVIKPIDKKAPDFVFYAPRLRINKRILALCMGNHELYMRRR

[5] = molecular target: REPS1___Q96D71_226_314
[6] = molecular target: RUNX1T1-MYND___Q06455_510_559
[7] = molecular target: T3, SHC_PH__P29353_149_317
T3 chain: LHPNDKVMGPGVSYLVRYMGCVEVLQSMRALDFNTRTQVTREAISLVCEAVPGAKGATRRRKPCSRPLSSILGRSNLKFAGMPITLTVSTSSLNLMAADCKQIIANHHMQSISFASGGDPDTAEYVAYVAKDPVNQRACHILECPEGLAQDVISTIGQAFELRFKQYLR

[8] = molecular target: T4, SIN3A_PAH__Q96ST3_295_383; details: replicate selections in which the peptide was seen: 2
T4 chain: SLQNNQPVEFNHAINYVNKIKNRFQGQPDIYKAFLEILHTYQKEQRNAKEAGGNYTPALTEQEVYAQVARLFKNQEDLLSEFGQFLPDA

[9] = replicate selections in which the peptide was seen: 2
[10] = replicate selections in which the peptide was seen: 3
[11] = replicate selections in which the peptide was seen: 4
[12] = replicate selections in which the peptide was seen: 5
[13] = replicate selections in which the peptide was seen: 6

AGLNMGILGSYDPQQI [TRAF7 370-385 mut Q6Q0C0.R371G]
mean normalised NGS count [1]: 68.5

ARLNMGILGSYDPQQI [TRAF7 370-385 wt]
mean normalised NGS count [1]: 0.906

PLLPSPFGAGGLGLPV [GLIS2 415-430 wt]
mean normalised NGS count [1]: 0.0646

QEQLLASGSLLGSPDV [MUTYH 311-326 mut Q9UIF7.S321L]
mean normalised NGS count [1]: 3

EIQASIDQIFSRLEAL [GOSR2 36-51 mut O14653.R50C]
mean normalised NGS count [2, 9]: 6.66

MAFYSAAWVLSALTWH [CASR 1-16 mut P41180.L11S]
mean normalised NGS count [2, 9]: 0.406

VVRLLELRTAEPEVRA [MYO7A 1694-1709 mut Q13402.Q1699E]
mean normalised NGS count [2, 9]: 0.475

PLTLKEMLESIRETAE [BBS1 149-164 wt]
mean normalised NGS count [2, 9]: 0.106

NDSLMRQMRELEDLFA [DES 342-357 mut P17661.R355L]
mean normalised NGS count [2, 10]: 0.463

VLTAILLLLRELDAEG [CFAP410 216-231 wt]
mean normalised NGS count [2, 11]: 8.07

ALITDMLHQLLSMHGG [KCNQ1 607-622 mut P51787.L619M]
mean normalised NGS count [2, 11]: 38.4

ELNGYMEWISKAEEVI [CACNA1A 388-403 wt]
mean normalised NGS count [2, 12]: 37.6

YSGESLEDLMAKMKNM [UBA5 389-404 mut Q9GZZ9.D389Y]
mean normalised NGS count [2, 12]: 1.59

QDDLFWLTFEGKPLED [ISG15 118-133 wt]
mean normalised NGS count [3, 12]: 0.437

KPLYTALPPESAFPPA [ZEB2 892-907 mut O60315.Q901E]
mean normalised NGS count [3, 13]: 61.2

ALTSNQEYLYLSMPLD [FGFR1 759-774 mut P11362.D768Y]
mean normalised NGS count [3, 13]: 24.5

GVDPSFLAALPDDIHR [HUWE1 2967-2982 mut Q7Z6Z7.R2981H]
mean normalised NGS count [3, 13]: 4.53

GVDPSFLAALPDDIRR [HUWE1 2967-2982 wt]
mean normalised NGS count [3, 13]: 0.24

MYQVPLPLDRDGTLVW [PGAP2 1-16 mut Q9UHJ9.R16W]
mean normalised NGS count [3, 13]: 5.63

TQHSYTYNVSNLDVRQ [KMT2D 4890-4905 wt]
mean normalised NGS count [4, 9]: 0.0183

EKAAMYDIISSPSKDS [NIPBL 340-355 wt]
mean normalised NGS count [4, 9]: 0.121

MYDIISSPSKDSTNLT [NIPBL 344-359 mut Q6KC79.K357N]
mean normalised NGS count [4, 9]: 0.00611

MFDLLKEETEVKDLPE [ABCB6 564-579 mut Q9NP58.G579E]
mean normalised NGS count [4, 9]: 0.14

EEIFHMTYDLASAVVR [HCN1 282-297 wt]
mean normalised NGS count [4, 10]: 0.0961

LYLLQEHSDEAIWAAL [ABCC6 1360-1375 mut O95255.D1361Y]
mean normalised NGS count [4, 10]: 0.606

EEIFHMTYDLASAVVR [HCN3 282-297 wt]
mean normalised NGS count [4, 10]: 0.0961

EEIFHMTYDLASAVVR [HCN4 282-297 wt]
mean normalised NGS count [4, 10]: 0.0961

YDLLPFLSSTISPYDR [CRYAA 34-49 mut P02489.Y48D]
mean normalised NGS count [4, 11]: 0.0504

YYLLTGDTRLELELRP [APOB 992-1007 mut P04114.P994L]
mean normalised NGS count [4, 11]: 0.173

SYYPTSSSTSFMSSSS [EMD 180-195 wt]
mean normalised NGS count [4, 12]: 1.73

AAFPSKATFWWVSGLV [ABCC6 208-223 wt]
mean normalised NGS count [5, 9]: 8.07

QSPGRNSISPGRNGIS [APC 2322-2337 wt]
mean normalised NGS count [5, 9]: 1.23

NPWAQDEWEIPRQSLR [BLK 227-242 wt]
mean normalised NGS count [5, 9]: 0.65

WGVVTVTTIGYGDNVP [KCNQ1 305-320 mut P51787.K318N]
mean normalised NGS count [5, 9]: 0.148

ANFVHSQRREAFLYRS [PDE4D 180-195 mut Q08499.S190A]
mean normalised NGS count [5, 9]: 0.0679

LAMLHASDLASPSSAN [GTPBP3 333-348 mut Q969Y2.D337H]
mean normalised NGS count [5, 9]: 0.539

QRNFDKILAEWKQKYE [MYH7 1448-1463 wt]
mean normalised NGS count [5, 10]: 6.58

QRNFDKILAEWKQKYE [MYH6 1448-1463 wt]
mean normalised NGS count [5, 10]: 6.58

LAARGLAVLGEDNAPL [KISS1R 383-398 wt]
mean normalised NGS count [5, 10]: 6.12

MVTRLLQQQNLPQTGE [INPPL1 243-258 wt]
mean normalised NGS count [5, 11]: 3.07

GRGRGRGRRGGRGQNS [MRE11 569-584 wt]
mean normalised NGS count [5, 11]: 6.9

LAELDPEPTNPFQPIA [ARL13B 246-261 wt]
mean normalised NGS count [5, 11]: 23.7

WVAHRKAQHLSATVAE [ZNF526 155-170 wt]
mean normalised NGS count [5, 11]: 6.38

WLSHYWMPKWINATDP [ASNS 532-547 wt]
mean normalised NGS count [5, 12]: 25.7

NPWAQDEWEIPQQSLR [BLK 227-242 mut P51451.R238Q]
mean normalised NGS count [5, 12]: 1.85

ELSPHLPVLIRDSFYS [SKI 392-407 mut P12755.A399V]
mean normalised NGS count [6, 9]: 0.411

VAWVSNMPHLLADIES [SYNGAP1 1155-1170 mut Q96PV0.S1165L]
mean normalised NGS count [6, 10]: 0.704

YRYHGHSMSDPGVSYR [PDHA1 287-302 wt]
mean normalised NGS count [7, 9]: 0.0955

YRYHGHSMSDPGVSYR [PDHA2 287-302 wt]
mean normalised NGS count [7, 9]: 0.0955

AMSDQVRKATQQAEQL [MYH11 1754-1769 mut P35749.R1758Q]
mean normalised NGS count [7, 9]: 1.79

LYEHLTLEKSSSNLAV [BRCA2 2362-2377 wt]
mean normalised NGS count [7, 9]: 0.355

VALQLTEQDLETNKLD [BMPR2 654-669 mut Q13873.E661Q]
mean normalised NGS count [7, 9]: 0.0539

TWIENKLYGMSDPNWP [RET 1055-1070 wt]
mean normalised NGS count [7, 10]: 0.0309

IFVQNLVPDWWGPDGT [SLC12A3 324-339 mut P55017.R334W]
mean normalised NGS count [7, 13]: 6.95

LMSIEVLLLVVRHLSL [PKHD1 8-23 mut P08F94.A17V]
mean normalised NGS count [8]: 19.7

RGPGLLPLLAALAWFS [TTC19 52-67 wt]
mean normalised NGS count [8]: 0.19

LFDSLYFAIVTLSTVG [KCNT2 229-244 mut Q6UVM3.F240L]
mean normalised NGS count [8]: 1.2

Reference: the supplement of paper PMC11369174, “Proteome-scale characterisation of motif-based interactome rewiring by disease mutations” (Molecular Systems Biology, 2024)
